Experiment [1] concerns the target T1, human MSLN protein endogenously expressed on tumor cells (Hela, OVCAR3) (human, UniProt Q13421 296-598).
T1 construct: whole, on cells
In words: FACS, Hela cells. (In general: A flow cytometer gives signals particle by particle.)

The target in experiment [2] is T2, human MSLN full-length protein, recombinant, on CHO-K1 or HEK293T cells (human, UniProt Q13421 296-598).
T2 construct: The background says that the precursor is cleaved by furin to the mature membrane form; also called hMSLN; CHO-K1-hMSLN-2C8
In words: competitive FACS on CHO-K1-human MSLN-2C8 cells vs Biotin-Tab142; competitor at 0.032 nM.

Experiment [3] addresses T3, human MSLN-FL-his protein (human, UniProt Q13421 296-580).
T3 construct: Made in HEK293E cells, purified on nickel column; also called hMSLN-FL-his; not shown: histidine tag
In words: competitive ELISA on MSLN-FL-His; other antibody: NB149-70 (3.m9).

The target of experiment [4] is T2, human MSLN full-length protein, …. As to the kind of experiment: FACS, CHO-K1-hMSLN-2C8 cells.
The target in experiment [5] is T3, human MSLN-FL-his protein. In words: competitive ELISA on MSLN-FL-His; other antibody: NB148-25 (3.m2).
Experiment [6] has as its target T3, human MSLN-FL-his protein. In words: competitive ELISA on MSLN-FL-His; other antibody: NB149-31 (3.m7).
Experiment [7] deals with T4, chimeric human MSLN-R3 / chicken MSLN-R1-2 protein on HEK293T cells (clone A5) (chicken; human).
T4 construct: range 327-514; Human R1-R2 replaced by chicken R1-R2; also called HEK293T-chickR1-2/hR3-A5; HEK293T-hR3/chickR1-2-A5
As to the kind of experiment: FACS, HEK293T-hR3/chickR1-2-A5 cells, antibody 0.2 nM.

In experiment [8] the target is T1, human MSLN protein endogenously …. In words: FACS, OVCAR3 cells, antibody 0.2 nM.
Experiment [9] has the same target. As to the kind of experiment: FACS, OVCAR3 cells, antibody 20 nM.

T3 sequence (Q13421 other isoform, or with tags, fused parts or gaps): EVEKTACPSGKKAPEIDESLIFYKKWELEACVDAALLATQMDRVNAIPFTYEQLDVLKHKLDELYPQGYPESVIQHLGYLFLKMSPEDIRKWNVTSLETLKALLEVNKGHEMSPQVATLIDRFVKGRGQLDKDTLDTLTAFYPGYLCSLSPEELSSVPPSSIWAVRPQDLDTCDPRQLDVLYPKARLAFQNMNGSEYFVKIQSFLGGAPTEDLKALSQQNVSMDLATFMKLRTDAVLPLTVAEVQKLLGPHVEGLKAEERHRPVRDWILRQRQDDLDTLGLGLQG

B1: NB149-31 VHH-hFc (Fc fusion)
chain: EVQVVESGGGLVQPGGSLRLSCAASGITFSGNYGGWFRQAPGEQRELVASMSSALGTKYADPVKGRFTISTDTAKNTVDLQMNSLGPEDTAVYYCYARVRLSRGGWGSEYWGQGTQVTVSS[human IgG1 Fc with changes not written out]
Regarding B1, the EC50 (in general, the concentration at which the effect is half-maximal) in experiment [1] turned out to be 0.16 nM; in experiment [4], 1.85 nM. Further, the figures for the “Max MFI” value in experiment [1] and in experiment [4] were 313 and 11300, respectively. Also, the “MFI of Biotin-Tab142” value in experiment [2] was found to be 42700. Also, the values for the inhibition rate in experiment [3], in experiment [5] and in experiment [6] were 88%, 62% and 88%, respectively. In addition, the MFI in experiment [7] is 74; in experiment [8], 1200; in [9], 11400.

B2: NB149-95 VHH-hFc (Fc fusion)
chain: QVQLVESGGGLVQAGGSLRLSCTASESGFSANYMGWYRQEAPGKERELVATINRFGSTNYADSVKGRFTISRDNAKNTVYLQMNSLKSEDTGVYYCRIMRPGNWYWGQGTQVTVSS[human IgG1 Fc with changes not written out]
In the case of B2, the EC50 in experiment [1] came to 0.12 nM; in experiment [4], 2.05 nM. The “Max MFI” value in experiment [1] turned out to be 388; in [4] it was 12800. Also, in experiment [2], the “MFI of Biotin-Tab142” value came out at 42300. Further, the results for the inhibition rate in experiment [3], in experiment [5] and in experiment [6] were 19%, 7% and 13%, respectively. Also, the results for the MFI in experiment [7], in experiment [8] and in [9] were 76, 1950 and 12800, respectively.

B3: NB149-34 VHH-hFc (Fc fusion)
chain: QLQLVESGGGLVQPGGSLRLSCAASGSVNSITAMGWYRQGPGNERELVAVITDRGRASYADSVKGRFAISMDNDKHTVYLQMDSLKPEDTAVYYCNAHRRTWPHPGDYWGQGTQVTVSS[human IgG1 Fc with changes not written out]
Take B3: the EC50 was found to be 0.16 nM in experiment [1] and 2.23 nM in [4]. For the same molecule, the “Max MFI” value turned out to be 382 in experiment [1] and 11700 in experiment [4]. In addition, the “MFI of Biotin-Tab142” value in [2] was found to be 43100. Also, the inhibition rate in experiment [3] was 59%; in experiment [5], -13%; in experiment [6] it was 71%. Further, the MFI in experiment [7] is 73; in experiment [8] it was 1370; in experiment [9], 12200.

B4: NB148-27 VHH-hFc (Fc fusion)
chain: EVQVVESGGGLVQAGASLRLSCASSGRTISPIAMAWFRQAPGKERELVAGLTWTGRTYYSDSVKGRFTISRDNAKNTVYLQMDSLKFEDTAVYFCAAGDNPDRRGSSWSSSSVYEYWGQGTQVTVSS[human IgG1 Fc with changes not written out]
Turning to B4, the EC50 in experiment [1] is 2.59 nM; in experiment [4] it was 2.29 nM. Further, the “Max MFI” value in [1] was 352; in experiment [4], 10600. In [2], the “MFI of Biotin-Tab142” value is 41700. The inhibition rate in experiment [3] is 83%; in [5] it was -35%; in [6], 86%. Further, the MFI in [7] stood at 73; in experiment [8], 361; in experiment [9], 5400.

B5: NB149-70 VHH-hFc (Fc fusion)
chain: QVQLVESGGGLVQPGGSLRLSCAASGSIFSGNAVAWYRQAPGKEREAVAVITRDGDTKYADSVKGRFTISRYNAKNIAYLQMNSLKPEDTAVYYCNTARGAAVDSWGQGTQVTVSS[human IgG1 Fc with changes not written out]
On to B5, for which the EC50 in experiment [1] was determined as 0.13 nM; in experiment [4], 2.22 nM. Also, the “Max MFI” value in experiment [1] came out at 303; in [4], 11300. The “MFI of Biotin-Tab142” value in experiment [2] stood at 42700. The inhibition rate is 34% in experiment [3], 24% in experiment [5] and 47% in experiment [6]. In addition, the MFI in experiment [7] was 91; in [8], 1240; in experiment [9] it was 11400.

The record behind these values is patent publication US20240124563A1 (NANJING ZAIMING PHARMACEUTICAL, published 2024).
